The other results are listed elsewhere or left out.
T1: UNK ZnF1-3 (human, UniProt Q9C0B0 31-174)
T1 sequence: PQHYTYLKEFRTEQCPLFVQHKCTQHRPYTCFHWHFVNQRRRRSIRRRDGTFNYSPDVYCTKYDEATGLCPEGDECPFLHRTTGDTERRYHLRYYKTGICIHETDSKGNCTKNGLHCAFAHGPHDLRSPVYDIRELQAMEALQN

B1: chr13:41369065:41369066:+_ENSMUSG00000091264_ENSMUST00000165561|mus_mus|FALSE|FALSE (ssRNA)
RNA: GGGAGUUCUACAGUCCGACGAUCCUAGAGCACUGGCCAUGCAACAUUUCCAGAAGGGCUGCUCGACACUGCCUUCUGUCUAAUACCAGCAAACAGCUUUGGAUAAAACCUUGGAUGUCUUAAUGGCAGUUCACUCUGUGAUGCCAACAGAGGAUUGAGCAUCA
B2: chr10:120830595:120830596:-_ENSG00000107581_ENST00000369144|hu_mus|FALSE|FALSE (ssRNA)
RNA: GGGAGUUCUACAGUCCGACGAUCUUUGAAAGCUUGUUGGGCGAUAUCAUGGUAAAGGCGCUCUACUCUAGAAUUGUUUCGAAGAAGGUCCAAACACUGCCUGUAUGAUUCCCACAGGAACUUGACCCAGGGAGUCAGUAGCAACAACAGAGGAUUGAGCAUCA
B3: chr2:60072956:60072957:+_ENSMUSG00000026977_ENSMUST00000102748|mus_hu|motif|central (ssRNA)
RNA: GGGAGUUCUACAGUCCGACGAUCCGCACUUUUAGUUUUAUCACUUUUACCAUCAGCUGAAUUCCAACCUGAAGGAAUAAUAUCGGCUGUGAUCAUGACAUUGUCGGUCAAAUUACUCCCAAGUGCUGGAGGGACUGCAAACCGCAACAGAGGAUUGAGCAUCA
B4: chr1:63113421:63113422:-_ENSG00000116641_ENST00000251157|hu_hu|motif|central (ssRNA)
RNA: GGGAGUUCUACAGUCCGACGAUCUAAGCAUUUUACAAGAAGUCUUUGACCAAAAUGUUCUUUGGGUAUAUCAGGAACACGGAGCCGUUCUAUUGGUUCUUCCUCAUCUGGUGAUGGAUGCAAAGCAAAAAGUUCUUUGUGACGCAACAGAGGAUUGAGCAUCA
B5: chr4:17845017:17845018:+_ENSG00000109805_ENST00000514176|hu_hu|FALSE|FALSE (ssRNA)
RNA: GGGAGUUCUACAGUCCGACGAUCCUUUCCUAACUUAGAUCUUCAUUGAGAAAUUGGGCAAGGUUAAGUUUACUUUUUUCUAGUGCUGCGGUUUUGGCUCGUCUUGGUAGUCUCAUCUUCAUUUCUGAUUCUGGUUCUGGAACUCAACAGAGGAUUGAGCAUCA
B6: chr5:23024286:23024287:-_ENSMUSG00000062604_ENSMUST00000088392|mus_mus|motif|central (ssRNA)
RNA: GGGAGUUCUACAGUCCGACGAUCGCAAGCUGUACUCCAAAUGUCUGCAGGUGUGCUGUAGCCUGCUCCUAUUAAAACCUCGGUGGACCUAUACUGACGUGUCUGGAUAUCCUCUGUGAAAUGUUUAUGCACCCAACAAGCAUUCAACAGAGGAUUGAGCAUCA
B7: chr11:111909998:111909999:+_ENSG00000150768_ENST00000533297|hu_hu|FALSE|FALSE (ssRNA)
RNA: GGGAGUUCUACAGUCCGACGAUCACCCUUCCCUUUGGUCCAGCAGGAGUAGCUGGGCAGGGUGCUGAAGGUGUAGGAGCUAAAGGCUGGGGAGUUGGAGGAACAGCGGCCACCGGGGGUGGGGUAGGUGGUGGCACUUGUGGUCAACAGAGGAUUGAGCAUCA
B8: chr7:141450121:141450122:+_ENSG00000106028_ENST00000265304|hu_mus|hu_hu_hu_mus_True|8_68 (ssRNA)
RNA: GGGAGUUCUACAGUCCGACGAUCUCAUCCGUUCUAUGCCUUUUCUUUUGUCUGGUCACUCAGAAAUAUAAUAUUAUCAGCUAUGAUUGUUGUUGCUUGCCGCCUCACAUUGUUUUUAUCCAUGUACUCACCAUAGUCCACUUUCAACAGAGGAUUGAGCAUCA
B9: chr4:86222399:86222400:+_ENSMUSG00000070934_ENSMUST00000091064|mus_hu|FALSE|FALSE (ssRNA)
RNA: GGGAGUUCUACAGUCCGACGAUCGAAUGUAGCUCUUUCGAACAGCAGAACUUCAUCGGCCUCAAUGAUUUGGGCAAAAUUCCUGAGGUUCAUCUCCAGCUGCUGAACGUUGGGAAUCAGCUGGUAGACGAUGCUGGACCAGGCCAACAGAGGAUUGAGCAUCA
B10: 165202529_165202649_5379_3pUTR_ENSMUSG00000017667_ENSMUST00000103084|mouse|control|control (ssRNA)
RNA: GGGAGUUCUACAGUCCGACGAUCGUUCUCUUCCUGUACCAUGUGGGUCCCGGGACCAAACACAGGUUGUCUGGCUUGGUGGCAGGUGAUGUUACCCCACACCAUCUGGAAGCCCCUCAGAGUCUUUAUAGAUGCAGUAAUAAUCAACAGAGGAUUGAGCAUCA
B11: chr19:47150976:47150977:-_ENSG00000197380_ENST00000391916|hu_mus|FALSE|FALSE (ssRNA)
RNA: GGGAGUUCUACAGUCCGACGAUCACAGUAAUUUCUUUAAUAAAAAAAAAAAAACAAAAACAAACAAAUCAAAAAAACCCACUGGAUUGGAACAGCUGAGGGUCAUUCAGCGUCCCCCACCCCCCGUGGGGAGAGGCACGAGAUCAACAGAGGAUUGAGCAUCA
B12: chr18:56819859:56819860:+_ENSG00000166562_ENST00000588875|hu_mus|hu_hu_hu_mus_True|68_88 (ssRNA)
RNA: GGGAGUUCUACAGUCCGACGAUCAACCUUGAUUACUCUGUGAACUAUUGGAAUGUCUCUUCCUUCAACUUUAAAAACAACUAUUUCACCAGCUCUGAUGGGGUCCUCCCGGAAAUUCGUGAGGAACAGCAGAUCUCCUCUGUGCAACAGAGGAUUGAGCAUCA
B13: chr2:183789671:183789672:-_ENSG00000061676_ENST00000360982|hu_mus|FALSE|FALSE (ssRNA)
RNA: GGGAGUUCUACAGUCCGACGAUCUUAUGGCAGGUACACUUGAAUUUCAAAUGUUAAAACAUAUAAAAAGUGAUUCGGGACUACCAUCUGUAUCAACAGUUGCCAAGUGUCUGGUUGUUUAUUAUACAGCAGGGUAAAGGCAGUCAACAGAGGAUUGAGCAUCA
B14: chr14:63848828:63848829:-_ENSG00000154001_ENST00000337537|hu_hu|FALSE|FALSE (ssRNA)
RNA: GGGAGUUCUACAGUCCGACGAUCACGCUGACGAUCUGACUUGUAUGUGGCUGUCAGCUCGUCAAACAUGGUGCUGUUCAUUUCCAUAAAUGCCUUCAACACAUUGUACACCAACGCCACAAUAGCCGGAUUCCAAUGUUCUUUCAACAGAGGAUUGAGCAUCA

biological target: T1, UNK ZnF1-3; experiment: nsRBNS (natural sequence RNA bind-n-seq); RBNS binding buffer (assumed for nsRBNS): 25 mM Tris pH 7.5, 150 mM KCl, 3 mM MgCl2, 0.01% Triton X-100, 500 ug/ml BSA, 20 U/ml SUPERase-In, 4 C; UNK is unkempt and MSI1 is Musashi-1; names of the RNAs are library labels; protein concentration not given here; high values mean tight binding

Compared with B1, B2 is lower in binding signal: 1.08 enrichment R for the first, 0.573 enrichment R for the second.

First: B3
Second: B4
The binding signal of the first is lower: 0.666 enrichment R for the first, 0.874 enrichment R for the second.

Compared with B5, B6 is higher in binding signal: 0.392 enrichment R for the first, 0.994 enrichment R for the second.

First: B7
Second: B8
The binding signal of the first is higher: 1.76 enrichment R for the first, 0.514 enrichment R for the second.

Going from B9 to B10, the binding signal falls from 0.919 enrichment R to 0.766 enrichment R.

Compared with B11, B12 is lower in binding signal: 1.51 enrichment R for the first, 0.719 enrichment R for the second.

Compared with B13, B14 is lower in binding signal: 1.24 enrichment R for the first, 0.472 enrichment R for the second.

Reference: paper PMC12136788
